From PubChem BioAssay AID651598 (Sanford-Burnham Center for Chemical Genomics, 2012)
Certain results were filed several times, with different values. They are shown here; other results are not.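 How the source made its calls: active means CXCR6 IC50 under 10 µM and IC50 at the unrelated APJ receptor at least five times higher; inactive means the rest.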 An entry can have further records. Values that stand side by side are repeated measurements across runs, samples, wells, individuals or studies. Brackets tell where a record comes from. The letters are not those of the source and start again with each entry.

Biological target: C-X-C chemokine receptor type 6 (Homo sapiens) (UniProt O00574)
Test: APJ beta-arrestin recruitment blockade alongside CXCR6 – cell-based, DiscoveRx, panel, CHO-K1, counter-screen for CXCR6 antagonist project, SAR follow-up (AID 651598)
Conditions: CHO-K1 PathHunter beta-arrestin luminescence, antagonist mode, mean of runs

UniProt O00574, sequence (O00574 whole entry, looked up): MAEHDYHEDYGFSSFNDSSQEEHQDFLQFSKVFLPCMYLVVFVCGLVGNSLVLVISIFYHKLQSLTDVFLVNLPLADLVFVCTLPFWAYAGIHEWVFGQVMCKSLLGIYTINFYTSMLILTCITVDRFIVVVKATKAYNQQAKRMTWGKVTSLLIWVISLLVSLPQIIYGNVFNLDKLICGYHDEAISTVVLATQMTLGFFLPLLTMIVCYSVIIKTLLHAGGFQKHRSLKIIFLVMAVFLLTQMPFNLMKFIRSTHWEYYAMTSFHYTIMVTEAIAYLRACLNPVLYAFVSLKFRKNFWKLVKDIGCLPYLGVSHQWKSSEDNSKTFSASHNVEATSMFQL

Structure (SMILES): COc1cc(C(=O)NC2CC3CCCC(C2)N3CC(=O)Nc2ccccc2)cc(OC)c1OC (configuration not stated)
- IC50: 6.08 µM [sample A] and inactive [sample B] and inactive: > 80 µM [sample C]

Structure (SMILES): COc1cc(C(=O)NC2CC3CCC(C2)N3CC(=O)Nc2ccccc2)cc(OC)c1OC (configuration not stated)
- IC50: inactive [sample A] and inactive: > 80 µM [sample B]
